# Some of the results follow.
# Tested on: PfHDP1 homeodomain (GST-tagged)
# Assay: gcPBM binding intensity (ln(normalized median fluorescence intensity)); higher = stronger DNA binding
# Outline: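 Binding intensity is the highest Masliner-normalised natural-log median intensity over replicate spots in either probe orientation. To obtain it, GST-tagged P. falciparum DNA-binding domains made in E. coli were incubated for 1 h on an Agilent 4 × 180k array of primer-extended double-stranded 36-bp intergenic genomic probes plus negative controls. Detection used Alexa488 anti-GST antibody with scanning at 488 nm.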
row,Sequence,gcPBM binding intensity (ln)
1,AATATTACAAAATATTGTCCGTACAAATTTTTAATA [XGTACX_site8129],6.11
2,AAAAAAAAAAAAAAGACACACATATATATATATATA [CACACA_site633],9.46
3,GATGATAAAATATGTACACACAGTTTATACATTTTG [CACACA_site4055],6.23
4,TTCCCTTTTTTTATTTGTACTTATCTTTTAAATAAT [XGTACX_site2497],6.98
5,AATTATAATTAATAGAGTACTGAATATATATATATA [XGTACX_site8683],8.9
6,AGCATTTTTCATTTTGCACACATGTTTTATGTGTAT [CACACA_site3454],10.5
7,ATATCGGGTGCATTAACACACATTTATTTGAATAAA [CACACA_site2350],9.57
8,GCTTCTTAGTATACTTTATAAAATATATATTAAATA [XGTACX_negctrl_site57],7.06
9,TAAAATATAATAAAATGTACACGCATGCAATAGAAT [XGTACX_site7434],7.69
10,ATATATCATAATAGAGGTACACATATTATATATATA [XGTACX_site782],7.63
11,TTTATAAATATATATACACACACATATATATTATAT [CACACA_site8099],7.03
12,ATATTAAATATAATTTGTACGCATTTTTTTTTTTTT [XGTACX_site1910],6.27
13,TTTTTTTTATTAGTGTGTACGCATTTATTTATACAT [XGTACX_site1599],6.97
14,TTTAAATTATGAAATTGTACATATAAAAATATTTTA [XGTACX_site4796],6.21
15,TATATATTATTTAAAACACACAAAAAAAAAAATTAT [CACACA_site89],6.7
16,TTAAAAATATATGAATGTACATATATTTATATATAT [XGTACX_site77],6.6
17,TACTTACCAAAATACACACACACACCCAATATATAA [CACACA_site1871],7.04
18,TTTTTGTATTCTACCTTAACAATCTTAAAGATTTTT [CACACA_negctrl_site1157],6.44
19,TTTTTTTTTTTAAAATGTACACGTAATTACATATAT [XGTACX_site752],6.69

row,Sequence,gcPBM binding intensity (ln)
1,TGATGGTTACGTTTATGTACACATTACAGTTAGTAT [XGTACX_site998],6.32
2,AAAATATATTAAGGCACACACATACATATATATATA [CACACA_site3723],8.86
3,GAGTTAATATTTAAAAGTACAAGATGAATGTAAAAA [XGTACX_site5810],6.59
4,ACTACATTATTGCATTGTACTTTTTTTTTTTTTTTA [XGTACX_site4605],6.8
5,TTAAAAATTATATAAGTGCATTAATATTTAGAACAA [GTGCAC_site9773],9.65
6,TATATTGAATGCAAAAGTACATTTGTGTAAATTTAT [XGTACX_site7611],7.22
7,TTTTCATATTATAGTGCACACAAAAATATATATATG [CACACA_site8929],10.3
8,TTATTTAGTATATTATGTACATACAATGCCTGGGAA [XGTACX_site4578],6.87
9,TAAAATATATATATGTGTACATAACATATAATTTTT [XGTACX_site1725],6.24
10,TATTGTTGTTCATGTACACACTATAATAAAAGCAAT [CACACA_site6148],7.02
11,ATATGTTACAGACACACACACACATAAAAAAACAAA [CACACA_site3248],7.18
12,AGTATAAAAATATATTTACACACTATATATATCGAA [CACACA_site8494],6.57
13,TTTTTTACTTTTGAGACATTTCATATTTTTATTCAC [GTGCAC_negctrl_site730],6.45
14,TGATTGAGTAAAATGGGTACATATACACTATTACAT [XGTACX_site5232],6.14
15,TACAGGAATATTTTTACACACTAAAAATTATAAAAT [CACACA_site1649],6.3
16,AAAGGTTCACATTATATAGTTATGTAATATATATGT [CACACA_negctrl_site542],6.18
17,TTTTTTCTCTGTGGCTGTACTTTGAAGATATTTTAT [XGTACX_site8243],6.99
18,ATATTGTATTTATGTACACACATTTTTGGAATATGA [CACACA_site4861],7.01
19,ATATATATATATATATGTACATATTGTATTAATTAT [XGTACX_site1919],9.2

row,Sequence,gcPBM binding intensity (ln)
1,CTCTGTTGTCTTAGTTGTACAATAGAAAAAAATAAT [XGTACX_site7043],6.85
2,TCTTTTAAACAGTACACACACACATCTATATTTATA [CACACA_site6559],7.27
3,ATATATTTATATATTACACACAATATTGTACAGATA [CACACA_site8215],6.96
4,GAAGGAATATACAATTGTACTTGGCAAAAAAAAAAA [XGTACX_site1884],6.38
5,AAAAAAGGAAAAGATACACACCGTAAATTAAAATTT [CACACA_site5908],6.18
6,GTTAAGAATATATAATGTACTTATTTTAATATAGTA [XGTACX_site6088],6.25
7,AAATACTTGTCATATTGTACATGTTTGTGATATATA [XGTACX_site3185],6.39
8,ATAATTTGGAAACACACACACACACCCACATATATA [CACACA_site2286],7.17
9,TGTTTATTTTTAAAAAGTACATATATAAAAAATATC [XGTACX_site4902],6.38
10,TTAAATGAAAAATGGGGTACATATATACAAATATAT [XGTACX_site5931],6.2
11,AAAAAAAAATACTACTGTACTTTTTTTGGACATCTA [XGTACX_site1096],5.87
12,TGATTATACGCACGCGCACACACAACCAAAAAAAAA [CACACA_site3537],8.42
13,AGGTACTTTTTTAAAACACACATATAACATATACAC [CACACA_site6629],6.86
14,ACCCCCAATACGGAAACACACAAGTTATTTTATCAT [CACACA_site8874],7.14
15,AATAATCTATATTGTACACACAAAATGGGAAAAAAA [CACACA_site6969],6.89
16,AATTAGATTTACTGAAGTACTTAATTTATTTTATTA [XGTACX_site3407],6.24
17,ATAAATGAAAAAAAGCGTACATATAAAAAAATATAT [XGTACX_site5063],6.28
18,TGTAAATAATATAATAGTACGCATATTTTTATTGAA [XGTACX_site284],6.34
19,ACTTACCCATTTATTACACACATAAAGGAAAATTTT [CACACA_site4873],7.44
